Data taken from the supplement of paper PMC4604168 (melanoma cell lines).
The list shows a part of the results. Repeats are few or missing, and single values can be far off.
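Also: cell number obtained by counting DAPI-stained nuclei in high-throughput microscope images with image analysis software, screen run in 1,536-well plates.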

These molecules were tested on 501Mel (assay: cell count relative to DMSO control; melanoma cells; higher = more viable cells). Conditions: library dose: low library concentration; 72 h.
`Cc1cn(-c2cc(NC(=O)c3ccc(C)c(Nc4nccc(-c5cccnc5)n4)c3)cc(C(F)(F)F)c2)cn1` [nilotinib] + O=C(Oc1ccc([N+](=O)[O-])cc1)N1CCC(C(O)(c2ccc3c(c2)OCO3)c2ccc3c(c2)OCO3)CC1 [JZL184] (first compound 0.2 µM, partner dose 1 µM) was tested, and the cell count was 96.2%. For `CN(c1ncccc1CNc1nc(Nc2ccc3c(c2)CC(=O)N3)ncc1C(F)(F)F)S(C)(=O)=O` + Cc1cc(SCc2sc(-c3ccc(C(F)(F)F)c(F)c3)nc2C)ccc1OCC(=O)O [GW0742] (first compound 0.08 µM, partner dose 2 µM), the cell count was 94.1%. With `C[C@@H](Oc1cc(-c2cnn(C3CCNCC3)c2)cnc1N)c1c(Cl)ccc(F)c1Cl` [Crizotinib] + Cc1cc(SCc2sc(-c3ccc(C(F)(F)F)c(F)c3)nc2C)ccc1OCC(=O)O [GW0742] (first compound 0.2 µM, partner dose 2 µM) the cell count was 71.3%. With `O=c1[nH]nc(Sc2ncc([N+](=O)[O-])s2)n1-c1ccc2c(c1)OCCO2` + Cc1cc(SCc2sc(-c3ccc(C(F)(F)F)c(F)c3)nc2C)ccc1OCC(=O)O [GW0742] (first compound 0.2 µM, partner dose 2 µM) the cell count was 86.1%. `CC[C@]1(O)C[C@H]2CN(CCc3c([nH]c4ccccc34)[C@@](C(=O)OC)(c3cc4c(cc3OC)N(C=O)[C@H]3[C@@](O)(C(=O)OC)[C@H](OC(C)=O)[C@]5(CC)C=CCN6CC[C@]43[C@@H]65)C2)C1` [vincristine] + O=C(Oc1ccc([N+](=O)[O-])cc1)N1CCC(C(O)(c2ccc3c(c2)OCO3)c2ccc3c(c2)OCO3)CC1 [JZL184] (first compound 0.0001 µM, partner dose 1 µM) gave a cell count of 81.3%. In the case of `CC(=O)c1c(C)c2cnc(Nc3ccc(N4CCNCC4)cn3)nc2n(C2CCCC2)c1=O` [palbociclib] + C/C(O)=C(\C#N)C(=O)Nc1cc(Br)ccc1Br [LFM-A13] (first compound 0.04 µM, partner dose 2 µM), the cell count is reported as 66.6%. Molecule `CN(c1ncccc1CNc1nc(Nc2ccc3c(c2)CC(=O)N3)ncc1C(F)(F)F)S(C)(=O)=O` + C/C(O)=C(\C#N)C(=O)Nc1cc(Br)ccc1Br [LFM-A13] (first compound 0.08 µM, partner dose 2 µM) has a cell count of 111%. With `O=C(Nc1cc(C(F)(F)F)cc(C(F)(F)F)c1)c1cc(Cl)ccc1O` + C/C(O)=C(\C#N)C(=O)Nc1cc(Br)ccc1Br [LFM-A13] (first compound 0.016 µM, partner dose 2 µM) the cell count was 102%. Molecule `N#CC[C@H](C1CCCC1)n1cc(-c2ncnc3[nH]ccc23)cn1` [ruxolitinib] + C/C(O)=C(\C#N)C(=O)Nc1cc(Br)ccc1Br [LFM-A13] (first compound 1 µM, partner dose 2 µM) has a cell count of 108%. With `O=C(/C=C/c1cccnc1)NCCCCC1CCN(C(=O)c2ccccc2)CC1` + C/C(O)=C(\C#N)C(=O)Nc1cc(Br)ccc1Br [LFM-A13] (first compound 0.01 µM, partner dose 2 µM) the cell count was 71.2%. `Cn1cnc2c(F)c(Nc3ccc(Br)cc3Cl)c(C(=O)NOCCO)cc21` [selumetinib] + O=C(Oc1ccc([N+](=O)[O-])cc1)N1CCC(C(O)(c2ccc3c(c2)OCO3)c2ccc3c(c2)OCO3)CC1 [JZL184] (first compound 0.015 µM, partner dose 1 µM) showed a cell count of 52.6%. `Nc1ncn([C@H]2C[C@H](O)[C@@H](CO)O2)c(=O)n1` [decitabine] + O=C(Oc1ccc([N+](=O)[O-])cc1)N1CCC(C(O)(c2ccc3c(c2)OCO3)c2ccc3c(c2)OCO3)CC1 [JZL184] (first compound 0.1 µM, partner dose 1 µM) gave a cell count of 58.9%. `O=C(/C=C/c1cccnc1)NCCCCC1CCN(C(=O)c2ccccc2)CC1` + Cc1cc(SCc2sc(-c3ccc(C(F)(F)F)c(F)c3)nc2C)ccc1OCC(=O)O [GW0742] (first compound 0.01 µM, partner dose 2 µM) showed a cell count of 95.7%. `CS(=O)(=O)c1ccc(C(=O)Nc2ccc(Cl)c(-c3ccccn3)c2)c(Cl)c1` [vismodegib] + C/C(O)=C(\C#N)C(=O)Nc1cc(Br)ccc1Br [LFM-A13] (first compound 1 µM, partner dose 2 µM) was tested, and the cell count was 84.2%.
